# According to PubChem BioAssay (NCATS):
# Several values for one entry are separate records, joined by “and”; a condition that tells them apart may be missing. Equal entries are not always repeated. Some of the results follow. Shown are side measurements of this screen, not its main read-out; they come without a call. For some assays here: Compounds called inactive in the main read-out are mostly missing here. For some assays here: Potencies come from curve fits of mixed quality, noted in brackets.
# Experiments:
# [1] = target: Catechol O-methyltransferase (Homo sapiens) (UniProt P21964); test: Confirmatory Screen for Target Class Profiling of Small Molecule Inhibitors of Methyltransferases (AID 1745852); conditions: MTase-Glo luminescence, SAH detection, recombinant enzyme; measured here: COMT inhibition potency;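 also: inhibitor potency for blocking SAH production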
# [2] = qHTS drug screen for cell cycle checkpoint inhibitors in PARPi-resistant BRCA-mutant ovarian cancer cell lines. (AID 1963452); conditions: PEO1/OlaR viability, CellTiter-Glo luminescence, 96 h
# How it was run: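 PEO1, PEO4 and PEO1/OlaR ovarian cancer cells, 600 per well, exposed 96 h at 37C to a dilution series. Viability read by CellTiter-Glo luminescence, normalized to DMSO and empty wells; activity summarized as Z-AUC.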
# [3] = target: Phenylethanolamine N-methyltransferase (Homo sapiens) (UniProt P11086); test: Confirmatory Screen for Target Class Profiling of Small Molecule Inhibitors of Methyltransferases (AID 1745852); conditions: MTase-Glo luminescence, SAH detection, recombinant enzyme; measured here: PNMT inhibition potency;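 also: inhibitor potency for blocking SAH production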
# [4] = target: Histamine N-methyltransferase (Homo sapiens) (UniProt P50135); test: as above; conditions: MTase-Glo luminescence, SAH detection, recombinant enzyme; measured here: HNMT inhibition potency
# [5] = qHTS Assay for Modulators of Human Peripheral Myelin Protein 22 (PMP22) Expression/Activity (AID 1967); conditions: Cell-based PMP22 reporter, dual-color luciferase ratio; measured here: red reporter channel AC50; EF-alpha promoter control reporter in MSC80 mouse Schwann cells
# How it was run: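 Readout is the corrected green/red luminescence ratio after 24 h compound exposure, normalised to untreated cells (0%). Engineered MSC80 mouse Schwann cells express green luciferase from the mouse Pmp22 promoter and red luciferase from EF-alpha as internal control.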
# [6] = qHTS assay for small molecule antagonists of peroxisome proliferator-activated receptor delta signaling (AID 588535); conditions: HEK293T PPARd-UAS-bla, beta-lactamase FRET ratio, 18 h; 460 nm channel;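 also: cells co-treated with a PPAR-delta agonist as stimulator during compound exposure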
# How it was run: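 Inhibition of PPAR-delta response element-driven beta-lactamase expression is measured in HEK293T cells exposed to a compound titration series for 18 hrs at 37 C. Half-maximal inhibition comes from Hill equation fitting.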
# [7] = qHTS assay for small molecule antagonists of retinoid X receptor alpha signaling (AID 588546); conditions: HEK293T RXRa-UAS-bla, beta-lactamase ratio, antagonist mode; measured here: W530 green channel, cytotoxicity proxy;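 also: cells stimulated with 9-cis-retinoic acid as agonist; % is scaled to controls: 0 for no effect and ±100 for the full control effect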
# How it was run: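 Beta-lactamase reporter inhibition, read as CCF4 fluorescence ratio (ex 405, em 460/530 nm) after 2 h at RT. HEK293T UAS-bla cells, 2500/well, were stimulated with 9-cis-RA at 500 or 100 nM final alongside test compound for 18 h at 37 C.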
# [8] = qHTS for identification of novel therapeutic agents for treatment of microphthalmiaassociated transcription factor (MiT) renal cell carcinoma (RCC) (AID 1963991); conditions: CellTiter-Glo, 48 h; for z-score: stronger effect = lower value
# How it was run: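 Three TFE3-fusion RCC lines (UOK109, UOK124, UOK145), 500 cells/well in complete medium, were treated with MIPE 4.0 compounds for 48 hours at 37 C. Viability was by CellTiter-Glo luminescence, normalized to DMSO (100%) and empty wells (0%); curves fitted over 11 concentrations.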
# [9] = measured here: PEO1 parental viability
# Tags tell the direction and shape of the fitted curve.
# Sequence of UniProt P21964 (P21964 whole entry, looked up): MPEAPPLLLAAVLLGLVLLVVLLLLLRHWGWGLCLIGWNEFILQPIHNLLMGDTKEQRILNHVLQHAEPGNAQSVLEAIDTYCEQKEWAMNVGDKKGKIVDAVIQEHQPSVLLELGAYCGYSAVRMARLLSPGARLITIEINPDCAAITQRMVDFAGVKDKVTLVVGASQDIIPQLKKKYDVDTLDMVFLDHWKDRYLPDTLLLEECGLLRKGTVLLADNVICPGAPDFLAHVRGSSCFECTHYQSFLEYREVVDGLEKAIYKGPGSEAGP
# Sequence of UniProt P50135 (P50135 whole entry, looked up): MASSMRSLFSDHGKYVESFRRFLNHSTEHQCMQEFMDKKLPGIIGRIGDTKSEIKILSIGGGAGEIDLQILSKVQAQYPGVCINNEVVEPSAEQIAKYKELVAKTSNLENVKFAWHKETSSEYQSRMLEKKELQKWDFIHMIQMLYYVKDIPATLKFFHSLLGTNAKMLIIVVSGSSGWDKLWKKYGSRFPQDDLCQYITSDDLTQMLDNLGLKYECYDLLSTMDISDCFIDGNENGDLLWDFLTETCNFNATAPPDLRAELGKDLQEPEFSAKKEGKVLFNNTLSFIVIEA
# Sequence of UniProt P11086 (P11086 whole entry, looked up): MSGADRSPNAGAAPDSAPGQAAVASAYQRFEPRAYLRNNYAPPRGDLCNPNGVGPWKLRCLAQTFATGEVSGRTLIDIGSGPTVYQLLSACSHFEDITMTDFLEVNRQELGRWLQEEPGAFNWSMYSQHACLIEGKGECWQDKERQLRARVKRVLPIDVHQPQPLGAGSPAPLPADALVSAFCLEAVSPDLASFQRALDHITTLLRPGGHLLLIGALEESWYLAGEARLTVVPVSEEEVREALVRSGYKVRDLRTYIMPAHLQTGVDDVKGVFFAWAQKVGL
smiles,measurement,setting,value
O=C(/C=C/C#Cc1cccc(NS(=O)(=O)c2ccccc2)c1)NO,IC50,[1],"21.7 µM [rising, partial curve]"
same,AC50,[2]; [9],"6.01 µM [falling, partial curve, poor fit]"
same,AC50,[2]; measured here: PEO4 viability,"8.48 µM [falling, partial curve]"
CNc1cc2c(Nc3cccc(Br)c3)ncnc2cn1,IC50,[1],"21.5 µM [falling, partial curve]"
same,IC50,[3],"4.82 µM [falling, full curve]"
CC1=C[C@@H](CN(CC2CC2)CC2CC2)[C@H](C(C)C)C[C@H]1Cc1nc2ccncc2[nH]1,IC50,[4],"17.5 µM [falling, partial curve]"
CCCNc1cc(N2CCC(CCC(=O)NCCN3CCCCCC3)CC2)ncn1,IC50,[4],"21.5 µM [falling, partial curve, poor fit]"
COc1ccccc1-c1[nH]nc2ncc(C(=O)NCC3CC3)nc12,IC50,[1],"44.1 µM [falling, single point]"
same,IC50,[3],"35 µM [falling, partial curve]"
C=CCN1CCc2cc(O)c(O)cc2C(c2ccccc2)C1 (stereo not drawn),AC50,[5],"67.5 µM [falling, partial curve, poor fit]"
same,IC50,[1],"6.85 µM [rising, partial curve]"
Oc1ccccc1O,max response,[6],48.8%
same,max response,[7],-4.77%
same,IC50,[1],"6.85 µM [rising, partial curve]"
Cc1nc2c3ccccc3n3c(CCCC(=O)NCCCN(C)Cc4ccccc4)nnc3n2n1,IC50,[4],"10.8 µM [falling, partial curve]"
CN(C)CCCNC(=O)c1ccc(-c2cc(O)c3ncccc3c2)cc1,IC50,[1],"482 nM [falling, full curve] and 1.72 µM [falling, full curve]"
same,AC50,[2]; [9],"12.3 µM [falling, partial curve, poor fit]"
same,AC50,[2]; measured here: PEO4 viability,"17.4 µM [falling, partial curve, poor fit]"
same,z-score,"[8]; TFE3-RCC UOK109 viability, measured here: UOK109 Z-AUC",0.583
same,z-score,"[8]; TFE3-RCC viability, measured here: UOK124 Z-AUC",0.79
same,AC50,"[8]; TFE3-RCC viability, measured here: UOK124 cell viability","10.5 µM [falling, full curve]"
same,z-score,"[8]; TFE3-RCC viability, measured here: UOK145 Z-AUC",0.545
same,AC50,"[8]; TFE3-RCC viability, measured here: UOK145 cell viability","18.7 µM [falling, partial curve]"
